Experimental data from the antibiotic and cytotoxicity screens of Wong et al. (2023).
Some of the results follow.

Key:
[1] = test system: HSkMC (human skeletal muscle cells); test: cytotoxicity call (relative viability < 0.9); conditions: 10 µM
[2] = test system: HepG2; test: cytotoxicity call (relative viability < 0.9); conditions: 10 µM
[3] = test system: S. aureus RN4220; test: growth inhibition call (relative growth <= 0.2); conditions: 50 µM

SMILES	cytotoxicity call [1]	cytotoxicity call [2]	growth inhibition call [3]
C[C@@H]1CN([C@@H](C)CO)S(=O)(=O)c2ccc(/C=C/c3ccccc3)cc2O[C@@H]1CN(C)C(=O)CN1CCOCC1	inactive	inactive	inactive
CCS(=O)(=O)Nc1ccc2c(c1)C(=O)N(C)C[C@H](OC)[C@H](C)CN(CCC(F)(F)F)[C@@H](C)CO2	inactive	inactive	inactive
C[C@@H]1CN([C@H](C)CO)S(=O)(=O)c2ccc(Br)cc2O[C@@H]1CN(C)Cc1ccc(C(=O)O)cc1	inactive	inactive	inactive
Cn1cnc(S(=O)(=O)N2C[C@@H](O)COC[C@@H]3O[C@H](CC(=O)NCc4cc(F)cc(F)c4)CC[C@H]32)c1	inactive	inactive	inactive
COc1ccc(CN(C)C[C@H]2OCCCC[C@@H](C)Oc3ccc(NC(=O)Nc4ccc(F)cc4)cc3C(=O)N([C@H](C)CO)C[C@H]2C)cc1	active	active	inactive
CC=Cc1ccc2n(c1=O)C[C@H]1[C@H](CO)[C@@H](C(=O)NCCCN3CCOCC3)[C@@H]2N1Cc1cocn1	inactive	inactive	inactive
C[C@@H]1CN([C@@H](C)CO)C(=O)c2cc(NC(=O)C3CC3)ccc2O[C@H]1CN(C)S(=O)(=O)c1ccccc1	inactive	inactive	inactive
N[C@@H](CSCCCO)C(=O)O	inactive	inactive	inactive
Cc1noc(C)c1NC(=O)N(C)C[C@@H]1Oc2ccc(NS(C)(=O)=O)cc2C(=O)N([C@H](C)CO)C[C@@H]1C	inactive	inactive	inactive
Cc1noc(C)c1NC(=O)Nc1ccc2c(c1)C(=O)N([C@H](C)CO)C[C@@H](C)[C@@H](CN(C)S(=O)(=O)c1ccccc1)O2	inactive	inactive	inactive
CCCNC(=O)N1C[C@@H](O)COC[C@@H]2O[C@@H](CC(=O)NCCCN3CCOCC3)CC[C@H]21	inactive	inactive	inactive
CCCNC(=O)N[C@@H]1C=C[C@@H](CC(=O)N2CCN(C)CC2)O[C@@H]1CO	inactive	inactive	inactive
C[C@@H]1CN([C@@H](C)CO)C(=O)c2cc(NC(=O)Nc3ccc4c(c3)OCO4)ccc2O[C@@H](C)CCCCO[C@@H]1CN(C)C(=O)C1CCCCC1	inactive	inactive	inactive
Cc1c(C(=O)OCC(=O)N(CC(C)C)c2c(N)n(Cc3ccccc3)c(=O)[nH]c2=O)oc2ccccc12	inactive	inactive	inactive
C[C@@H]1CN([C@H](C)CO)C(=O)Cc2cc(NC(=O)CCC(F)(F)F)ccc2O[C@H]1CN(C)S(=O)(=O)c1ccccc1	inactive	inactive	inactive
COc1ccc(S(=O)(=O)Nc2ccc3c(c2)C(=O)N([C@H](C)CO)C[C@@H](C)[C@@H](CN(C)CC2CCCCC2)OCCCC[C@@H](C)O3)cc1	inactive	active	inactive
C[C@H]1CN([C@@H](C)CO)C(=O)Cc2cc(NC(=O)CCCN(C)C)ccc2O[C@@H]1CN(C)S(=O)(=O)c1cccs1	inactive	inactive	inactive
Cc1nn(C)c2c1[C@@H](c1ccc(C(F)(F)F)cc1)C(C#N)C(=N)O2 (stereo partly drawn)	inactive	inactive	inactive
C[C@@H]1COC(=O)[C@@H](Cc2ccc(F)cc2)CC=CC[C@@H](CC(=O)N[C@@H](CO)Cc2ccccc2)C(=O)N1	inactive	inactive	inactive
C[C@H]1CN([C@@H](C)CO)C(=O)Cc2cc(NC(=O)Nc3cccc4ccccc34)ccc2O[C@H]1CN(C)Cc1ccc(Cl)c(Cl)c1	inactive	inactive	inactive
C[C@@H]1CN([C@@H](C)CO)C(=O)c2cc(NC(=O)c3ccccc3)ccc2O[C@@H](C)CCCCO[C@H]1CN(C)C(=O)c1ccccc1	inactive	inactive	inactive
COc1ccc(C(N)=S)cn1	inactive	inactive	inactive
CCNC(=O)C[C@H]1C=C[C@H](NC(=O)C2CCOCC2)[C@@H](CO)O1	inactive	inactive	inactive
C[C@@H]1CN([C@H](C)CO)C(=O)c2cc(-c3ccncc3)cnc2O[C@@H]1CN(C)S(=O)(=O)c1ccc(F)cc1	inactive	inactive	inactive
C[C@@H]1CN([C@H](C)CO)C(=O)CCCn2cc(nn2)CO[C@@H]1CN(C)C(=O)Nc1ccc(C(F)(F)F)cc1	inactive	inactive	inactive
C[C@@H]1CN([C@H](C)CO)C(=O)c2cc(NC(=O)Nc3cccc4ccccc34)ccc2O[C@@H](C)CCCCO[C@H]1CN(C)S(=O)(=O)c1ccc(F)cc1	inactive	inactive	inactive
